# Laboratory results: PMC10218303, “Novel Polymyxin-Inspired Peptidomimetics Targeting the SARS-CoV-2 Spike:hACE2 Interface” (International Journal of Molecular Sciences, 2023)
# Several values for one entry are separate records, joined by “and”; a condition that tells them apart may be missing. Equal entries are not always repeated. Bridge positions count the residues as written; N and C are the ends. Square brackets hold non-standard residues; d marks the D form. Peptide text beside a SMILES is read from it. Dab = NCC[C@H](N)C(=O)O
# Target: RBD of the Wuhan-Hu-1 SARS-CoV-2 spike protein (Severe acute respiratory syndrome coronavirus 2, UniProt P0DTC2)
# Assay: biochemical
# Settings: for Kd: KD (dissociation equilibrium constant); for kon: pH 7.4, read-out: ka (association rate constant); for koff: pH 7.4, read-out: kd (dissociation rate constant)
Compound,"binding to the RBD in SPR, in words",Kd,kon,koff
CC[C@H](C)[C@@H]1NC(=O)[C@@H](NC(=O)[C@H](CCN)NC(=O)[C@@H](NC(=O)[C@H](CC(C)C)NC(C)=O)[C@@H](C)O)CCNC(=O)[C@H](Cn2cc(CC(=O)N[C@@H](CCN)C(=O)N[C@H]3CCNC(=O)[C@H]([C@@H](C)O)NC(=O)[C@H](CCN)NC(=O)[C@H](Cc4c[nH]c5ccccc45)NC(=O)[C@H](CC(C)C)NC(=O)[C@@H](Cc4ccccc4)NC(=O)[C@H](Cc4ccc(O)cc4)NC3=O)nn2)NC(=O)[C@H](CCN)NC(=O)[C@H](CCN)NC(=O)[C@H](Cc2ccc(O)cc2)NC(=O)[C@@H](Cc2ccccc2)NC1=O [dimer 3],did not produce reliable data because of the aspecific interaction with the matrix of the chip,–,–,–
CC[C@H](C)[C@@H]1NC(=O)[C@@H](NC(=O)[C@H](CCN)NC(=O)[C@@H](NC(=O)[C@H](CC(C)C)NC(C)=O)[C@@H](C)O)CCNC(=O)[C@H](Cn2cc(CCC(=O)N[C@@H](CCN)C(=O)N[C@H]3CCNC(=O)[C@H]([C@@H](C)O)NC(=O)[C@H](CCN)NC(=O)[C@H](Cc4c[nH]c5ccccc45)NC(=O)[C@H](CC(C)C)NC(=O)[C@@H](Cc4ccccc4)NC(=O)[C@H](Cc4ccc(O)cc4)NC3=O)nn2)NC(=O)[C@H](CCN)NC(=O)[C@H](CCN)NC(=O)[C@H](Cc2ccc(O)cc2)NC(=O)[C@@H](Cc2ccccc2)NC1=O [dimer 4],did not produce reliable data because of the aspecific interaction with the matrix of the chip,–,–,–
CC(=O)N[C@@H](CCC(=O)O)C(=O)N[C@H](C(=O)N[C@@H](CCN)C(=O)N[C@H]1CCNC(=O)[C@H](Cn2cc(CC(=O)N[C@@H](CC(C)C)C(=O)N[C@H]3CCNC(=O)[C@H]([C@@H](C)O)NC(=O)[C@H](CCN)NC(=O)[C@H](CCN)NC(=O)[C@H](CC(C)C)NC(=O)[C@@H](Cc4ccccc4)NC(=O)[C@H](Cc4c[nH]c5ccccc45)NC3=O)nn2)NC(=O)[C@H](CCN)NC(=O)[C@H](CCN)NC(=O)[C@H](Cc2ccc(O)cc2)NC(=O)[C@@H](Cc2ccccc2)NC(=O)[C@H](Cc2ccc(O)cc2)NC1=O)[C@@H](C)O [dimer 7],–,2310 to 2780 nM and 2310 nM,3090 ± 590 M⁻¹ s⁻¹,0.00683 ± 0.00158 s⁻¹
CC(=O)N[C@@H](CCC(=O)O)C(=O)N[C@H](C(=O)N[C@@H](CCN)C(=O)N[C@H]1CCNC(=O)[C@H](Cn2cc(CC(=O)N[C@@H](CCN)C(=O)N[C@H]3CCNC(=O)[C@H]([C@@H](C)O)NC(=O)[C@H](CCN)NC(=O)[C@H](Cc4c[nH]c5ccccc45)NC(=O)[C@H](CC(C)C)NC(=O)[C@@H](Cc4ccccc4)NC(=O)[C@H](Cc4c[nH]c5ccccc45)NC3=O)nn2)NC(=O)[C@H](CCN)NC(=O)[C@H](CCN)NC(=O)[C@H](CC(C)C)NC(=O)[C@@H](Cc2ccccc2)NC(=O)[C@H](Cc2ccc(O)cc2)NC1=O)[C@@H](C)O [dimer 10],–,2310 to 2780 nM and 2780 nM,2650 ± 670 M⁻¹ s⁻¹,0.007 ± 0.0011 s⁻¹
CC(C)C[C@@H]1NC(=O)[C@@H](Cc2ccccc2)NC(=O)[C@H](Cc2ccc(O)cc2)NC(=O)[C@@H](NC(=O)[C@@H](N)CCN)CCNC(=O)[C@H]([C@@H](C)O)NC(=O)[C@H](CCN)NC(=O)[C@H](Cc2c[nH]c3ccccc23)NC1=O [monomer 1] (H-[Dab][Dab]Y[dF]LW[Dab]T; lactam 2-C),–,10100 ± 2090 nM,610 ± 50 M⁻¹ s⁻¹,0.00612 ± 0.00079 s⁻¹
CC[C@H](C)[C@@H]1NC(=O)[C@@H](NC(=O)[C@H](CCN)NC(=O)[C@@H](NC(=O)[C@H](CC(C)C)NC(C)=O)[C@@H](C)O)CCNC(=O)[C@H](Cn2cc(CC(=O)O)nn2)NC(=O)[C@H](CCN)NC(=O)[C@H](CCN)NC(=O)[C@H](Cc2ccc(O)cc2)NC(=O)[C@@H](Cc2ccccc2)NC1=O [monomer 2],–,9620 ± 1250 nM,460 ± 20 M⁻¹ s⁻¹,0.00439 ± 0.00039 s⁻¹
CC(C)C[C@@H]1NC(=O)[C@@H](Cc2ccccc2)NC(=O)[C@H](Cc2c[nH]c3ccccc23)NC(=O)[C@@H](NC(=O)[C@@H](N)CC(C)C)CCNC(=O)[C@H]([C@@H](C)O)NC(=O)[C@H](CCN)NC(=O)[C@H](CCN)NC1=O [monomer 5] (H-L[Dab]W[dF]L[Dab][Dab]T; lactam 2-C),detectable yet returning binding,–,–,–
CC(=O)N[C@@H](CCC(=O)O)C(=O)N[C@H](C(=O)N[C@@H](CCN)C(=O)N[C@H]1CCNC(=O)[C@H](Cn2cc(CC(=O)O)nn2)NC(=O)[C@H](CCN)NC(=O)[C@H](CCN)NC(=O)[C@H](Cc2ccc(O)cc2)NC(=O)[C@@H](Cc2ccccc2)NC(=O)[C@H](Cc2ccc(O)cc2)NC1=O)[C@@H](C)O [monomer 6],detectable yet returning binding,–,–,–
CC(C)C[C@@H]1NC(=O)[C@@H](Cc2ccccc2)NC(=O)[C@H](Cc2c[nH]c3ccccc23)NC(=O)[C@@H](NC(=O)[C@@H](N)CCN)CCNC(=O)[C@H]([C@@H](C)O)NC(=O)[C@H](CCN)NC(=O)[C@H](Cc2c[nH]c3ccccc23)NC1=O [monomer 8] (H-[Dab][Dab]W[dF]LW[Dab]T; lactam 2-C),–,8560 ± 4160 nM,1200 ± 410 M⁻¹ s⁻¹,0.00943 ± 0.00152 s⁻¹
CC(=O)N[C@@H](CCC(=O)O)C(=O)N[C@H](C(=O)N[C@@H](CCN)C(=O)N[C@H]1CCNC(=O)[C@H](Cn2cc(CC(=O)O)nn2)NC(=O)[C@H](CCN)NC(=O)[C@H](CCN)NC(=O)[C@H](CC(C)C)NC(=O)[C@@H](Cc2ccccc2)NC(=O)[C@H](Cc2ccc(O)cc2)NC1=O)[C@@H](C)O [monomer 9],devoid of any meaningful RBD binding,–,–,–
